B1: GACGUCC (DNA:RNA)
RNA: GGGAGACCGGAAUUCAGAUUGUCCGACGUCCUUAAAUCCCGUCGUAGCCACCA
DNA 1: CAATCTGAATTCCGGTCTCCC
DNA 2: TGGTGGCTACGACGGGATT
B2: GCCCCUC (DNA:RNA)
RNA: B1 RNA with A26C, G28C, U29C, C30U
DNA 1: CAATCTGAATTCCGGTCTCCC
DNA 2: TGGTGGCTACGACGGGATT
B3: CUAUUGA (DNA:RNA)
RNA: B1 RNA with G25C, A26U, C27A, G28U, C30G, C31A
DNA 1: CAATCTGAATTCCGGTCTCCC
DNA 2: TGGTGGCTACGACGGGATT
B4: UCUAUCU (DNA:RNA)
RNA: B1 RNA with G25U, A26C, C27U, G28A, C31U
DNA 1: CAATCTGAATTCCGGTCTCCC
DNA 2: TGGTGGCTACGACGGGATT
B5: AAAACUG (DNA:RNA)
RNA: B1 RNA with G25A, C27A, G28A, U29C, C30U, C31G
DNA 1: CAATCTGAATTCCGGTCTCCC
DNA 2: TGGTGGCTACGACGGGATT
B6: GGACAGC (DNA:RNA)
RNA: B1 RNA with A26G, C27A, G28C, U29A, C30G
DNA 1: CAATCTGAATTCCGGTCTCCC
DNA 2: TGGTGGCTACGACGGGATT
B7: CAACGUC (DNA:RNA)
RNA: B1 RNA with G25C, C27A, G28C, U29G, C30U
DNA 1: CAATCTGAATTCCGGTCTCCC
DNA 2: TGGTGGCTACGACGGGATT
B8: UGGCUUA (DNA:RNA)
RNA: B1 RNA with G25U, A26G, C27G, G28C, C30U, C31A
DNA 1: CAATCTGAATTCCGGTCTCCC
DNA 2: TGGTGGCTACGACGGGATT
B9: GGCCGUU (DNA:RNA)
RNA: B1 RNA with A26G, G28C, U29G, C30U, C31U
DNA 1: CAATCTGAATTCCGGTCTCCC
DNA 2: TGGTGGCTACGACGGGATT

Numbering of substitutions follows the chain as printed; changes in the protein carry UniProt numbers. The list shows a part of the results.

The target in the experiment is T1, RBFOX1 RRM RbFoxmut (Fox-RRM*) (Homo sapiens, UniProt Q9NWB1 109-208, R118D;E147R;N151S;E152T).
T1 sequence: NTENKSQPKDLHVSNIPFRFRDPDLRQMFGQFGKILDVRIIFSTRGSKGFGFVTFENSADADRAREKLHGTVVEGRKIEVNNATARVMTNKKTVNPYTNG
The experiment in a line: EMSA; HiTS-Eq, 1 nM pool, 10 min; buffer printed only for the single-RNA assays: 10 mM Tris pH 7.5, 150 mM NaCl, 3.4 mM EDTA, 0.001% NP-40, 30 C. The settings on record: tags: His6 N-terminal (pET28a); label: 5' 32P. A digest of the protocol: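 Relative association constants, normalised to the cognate motif, were derived by comparing read counts of each RNA species with those of the control reaction. The RNA sequenced was the free fraction, separated by 8% native PAGE after a 10 min equilibration in 50 µL of 1 nM 5′-radiolabelled RNA (7 randomized nucleotides) with increasing concentrations of purified wild-type or mutant RbFox RRM.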
On the technique in general: Mobility shift assays separate free from complexed probe on a gel.
As for B1, the binding signal is 0.0743 KA relative to UGCAUGU.

In the case of B2, the binding signal is 0.0605 KA relative to UGCAUGU.

Regarding B3, the binding signal was 0.122 KA relative to UGCAUGU.

For B4, the binding signal is 0.0863 KA relative to UGCAUGU.

Take B5: the binding signal was 0.0621 KA relative to UGCAUGU.

On to B6, for which the binding signal is 0.0872 KA relative to UGCAUGU.

For B7, the binding signal was 0.0611 KA relative to UGCAUGU.

As to B8, the binding signal is 0.129 KA relative to UGCAUGU.

As to B9, the binding signal is 0.0754 KA relative to UGCAUGU.

These data come from PMC9911399, “Two distinct binding modes provide the RNA-binding protein RbFox with extraordinary sequence specificity”.
